Molecular target: T1, human Hsp90β (heat shock protein of 90 kDa), full-length (human, UniProt P08238)
T1 construct: Human Hsp90β, full length; N-terminal (Hsp90N), charged linker, middle (Hsp90M) and C-terminal (Hsp90C) domains; For NMR: selective [1H-13C] labelling of isoleucine δ1 methyl groups in fully deuterated media; TEV cleavage is told for Aha1 only; also called full-length Hsp90; Hsp90 dimer; source: E. coli BL21(DE3), purified (Ni2+-NTA, Superdex 200 SEC)
Assay: NMR titration; methyl-TROSY of 80-100 uM isoleucine-labelled Hsp90 or Hsp90NM, Aha1 added (up to molar ratio 1:4); no nucleotide; 25°C; 50 mM sodium phosphate/300 mM NaCl/1 mM DTT pH 7.2, 100% D2O
Conditions: both partners purified

T1 sequence (P08238 whole entry): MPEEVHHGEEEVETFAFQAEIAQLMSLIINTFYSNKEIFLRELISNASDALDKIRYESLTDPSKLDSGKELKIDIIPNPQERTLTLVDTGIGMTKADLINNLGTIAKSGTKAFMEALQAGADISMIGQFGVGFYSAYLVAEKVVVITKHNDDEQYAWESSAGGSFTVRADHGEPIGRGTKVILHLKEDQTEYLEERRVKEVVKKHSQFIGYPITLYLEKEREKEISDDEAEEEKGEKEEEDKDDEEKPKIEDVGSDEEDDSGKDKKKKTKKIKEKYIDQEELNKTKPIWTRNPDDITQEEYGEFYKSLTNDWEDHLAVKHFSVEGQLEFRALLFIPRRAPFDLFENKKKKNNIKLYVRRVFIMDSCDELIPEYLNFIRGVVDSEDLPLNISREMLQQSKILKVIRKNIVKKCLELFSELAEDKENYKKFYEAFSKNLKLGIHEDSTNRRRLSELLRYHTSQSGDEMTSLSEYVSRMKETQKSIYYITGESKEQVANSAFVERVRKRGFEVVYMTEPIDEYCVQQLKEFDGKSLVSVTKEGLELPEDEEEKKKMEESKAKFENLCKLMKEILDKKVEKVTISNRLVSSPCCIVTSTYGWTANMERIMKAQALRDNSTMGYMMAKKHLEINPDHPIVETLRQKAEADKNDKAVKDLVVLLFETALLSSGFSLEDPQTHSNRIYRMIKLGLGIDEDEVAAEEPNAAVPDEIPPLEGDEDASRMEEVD

binding result: binds
B1: E67K-Aha1 (natural protein)
chain: not shown
notes: Human Aha1 with the mutation E67K; also called E67K variant; mutant protein E67K-Aha1

Source: paper PMC6699087, “Dynamic Aha1 co‐chaperone binding to human Hsp90” (Protein Science : A Publication of the Protein Society, 2019)
